The values below come from PubChem BioAssay AID1346428 (National Center for Advancing Translational Sciences (NCATS), 2018).

Among all 48,000 compounds or so, about 1,200 (2.5%) were called active. Inconclusive results (about 2%) are left out.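 How the source made its calls: active means activation of at least 60% and not above a set upper limit (about 1 call in 100 departs from these limits); inconclusive means activation of 40% to 60%, or above that upper limit; inactive means activation under 40%.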 Some of the results follow.

This experiment deals with Probable G-protein coupled receptor 32 (Homo sapiens) (UniProt O75388). Briefly: qHTS for Agonists of Human Resolvin D1 Receptor DRV1. Further: 0% is about no effect. As to conditions: CHO-K1 GPR32 beta-arrestin PathHunter luminescence, 90 min; at 76.9 µM; stronger effect = higher value; zero percent set by DMSO-only wells. In a few lines: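 Step 1: seed CHO-K1 GPR32 beta-arrestin cells, 2,500/well, overnight at 37 °C. Step 2: add compounds, 90 min at 37 °C. Step 3: detection reagent, 1 h ambient, then luminescence.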
Sequence of UniProt O75388 (O75388 whole entry, looked up): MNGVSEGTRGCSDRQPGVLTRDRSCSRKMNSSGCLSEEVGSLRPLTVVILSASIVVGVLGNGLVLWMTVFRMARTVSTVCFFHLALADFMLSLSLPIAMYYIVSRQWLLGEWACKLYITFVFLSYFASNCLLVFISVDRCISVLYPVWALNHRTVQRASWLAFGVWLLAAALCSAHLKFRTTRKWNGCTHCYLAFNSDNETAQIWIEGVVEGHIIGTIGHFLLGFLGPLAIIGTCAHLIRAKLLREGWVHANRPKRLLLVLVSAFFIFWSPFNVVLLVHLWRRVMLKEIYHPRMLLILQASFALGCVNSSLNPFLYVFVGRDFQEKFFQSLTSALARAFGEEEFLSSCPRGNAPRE
(In general: Quantitative high-throughput screening tests each substance at several concentrations.)
As for `CCN1CCN(C(=O)Cn2ncc3c4ccccc4n(Cc4ccccc4)c3c2=O)CC1`, the activation was inactive: 20.7%.

In the case of `Cc1ccc(-c2cc(NC(=O)COc3ccc(Cl)c(C)c3)on2)cc1`, the activation was inactive: 9.52%.

With `Cc1nnc(SCC2=C(C(=O)O)N3C(=O)[C@@H](NC(=O)Cn4cnnn4)[C@H]3SC2)s1`, the activation was inactive: 3.23%.

As for `Cc1cc(C)c(Cn2c3ccccc3c3cnn(CC(=O)NCc4ccccn4)c(=O)c32)c(C)c1`, the activation is inactive: -28.4%.

Take `CCOC(=O)c1cccc(NC(=O)c2cn(-c3cccc(OC)c3)c(=O)c3ccccc23)c1`: the activation is inactive: -0.825%.

In the case of `COc1ccccc1CCNC(=O)C(=O)NCC(c1cccs1)S(=O)(=O)c1ccccc1` (centres undefined), the activation was inactive: -2.83%.

In the case of `O=C(CCS(=O)(=O)c1ccc(Br)cc1)Nc1ccc(Cl)c(C(F)(F)F)c1`, the activation was inactive: 7.14%.

As for `Cc1ccc(Sc2ccc(N3CCC(C(=O)Nc4ccc(C)c(F)c4)CC3)nn2)cc1`, the activation was inactive: 25.7%.

For the compound `Cc1cccc(Cn2c(=O)n(Cc3ccccc3)c(=O)c3oc4ccccc4c32)c1`, the activation is inactive: -8.56%.

Regarding `Cc1ccccc1NC(=O)C1CCN(C(=O)c2cnn(-c3ccccc3)c2-n2cccc2)CC1`, the activation was inactive: -18.9%.

Turning to `Fc1cc(F)c2ncc3c(-c4ccccc4)nn(-c4cccc(Cl)c4)c3c2c1`, the activation was inactive: 12.5%.

Turning to `CC(C)OCCCNC(=O)C(=O)Nc1ccc2nc3n(c(=O)c2c1)CCCCC3`, the activation was inactive: 5.36%.

Take `COc1ccc(-c2cc(C(F)(F)F)nc(-n3nc(C(F)(F)F)cc3C)n2)cc1`: the activation was inactive: -9.94%.

As for `Cc1cccc(-c2nc3nc(C)cc(NCc4ccccc4Cl)n3n2)c1`, the activation is inactive: 5.65%.

As to `COc1cc(NC(=O)N(Cc2ccco2)C2CCN(C(C)=O)CC2)cc(OC)c1OC`, the activation was inactive: -1.26%.

`CCc1ccc(-n2c(N3CCN(c4cccc(Cl)c4)CC3)nc3ccccc3c2=O)cc1`: the activation was inactive: -13.6%.

Turning to `CC1CCN(c2oc(-c3ccc(COc4ccccc4)o3)nc2C#N)CC1`, the activation was inactive: -0.809%.

`O=C(NCC(c1cccs1)S(=O)(=O)c1cccs1)c1ccc(Cl)cc1` (centres undefined): the activation was active: 99.8%.

With `CSc1ccc(CCNC(=O)c2sc3ncccc3c2-n2cccc2)cc1`, the activation is inactive: -15.4%.

As for `O=C(NCC(c1cccnc1)N1CCOCC1)C(=O)Nc1cccc(Cl)c1` (centres undefined), the activation is inactive: -0.261%.

In the case of `CCOc1ccc(NC(=O)CN2C(=O)CCSc3ccc(S(=O)(=O)N4CCCC4)cc32)cc1`, the activation was inactive: -10.4%.

In the case of `Cc1ccc(C)c(N2CCN(C(=O)C(C)n3nc(C)c4sc5ccccc5c4c3=O)CC2)c1` (centres undefined), the activation was inactive: -28.7%.

On to `COc1cccc(-n2cc(C(=O)NCCc3cccc(C)c3)c3ccccc3c2=O)c1`, for which the activation is inactive: -23.3%.

`COC(=O)c1ccc(NC(=O)N2CCc3c([nH]c4ccccc34)C2c2ccc(C)cc2)cc1` (centres undefined): the activation is inactive: -29%.

Take `O=C(O)c1ccc(-n2nc(-c3ccccc3O)nc2-c2ccccc2O)cc1`: the activation was inactive: 31.6%.

As to `COc1ccccc1CNC(=O)C1CCN(c2nn3c(=O)cc(C)nc3s2)CC1`, the activation is inactive: -3.49%.

On to `O=C(NCc1ccccc1Cl)C(=O)NCC(c1ccco1)S(=O)(=O)c1cccs1` (centres undefined), for which the activation was inactive: -15.6%.

Regarding `CCC1CCCCN1CCCNC(=O)c1ccc2c(c1)N(Cc1cccc(C)c1)C(=O)c1ccccc1S2(=O)=O` (centres undefined), the activation is inactive: -9.69%.

As for `Cc1c2cnn(CC(=O)NCCc3ccccc3)c(=O)c2c(C)n1Cc1ccccc1Cl`, the activation was inactive: -16.8%.

For `COc1ccc(Cn2c(=O)c3oc4ccccc4c3n(CC(=O)Nc3cc(C)cc(C)c3)c2=O)cc1`, the activation is inactive: -17.6%.

Turning to `CCC1CCCCN1CCCNC(=O)c1cc2c(Cl)nc3ccc(C)cc3c2s1` (centres undefined), the activation is inactive: -5.85%.

For `CCc1ccc(NC(=O)CSc2nc(=O)n(Cc3cccnc3)c3c2CCC3)cc1`, the activation is inactive: 30.8%.

On to `CC(=O)c1ccc(NC(=O)CN2C(=O)c3cccnc3Sc3ccccc32)cc1`, for which the activation is inactive: 4.28%.

For `CCOc1ccc(NC(=O)CSc2nc3nc(C)c(Cc4ccccc4)c(C)n3n2)cc1`, the activation is inactive: -23.5%.

Take `COc1cc(C(=O)NCC(c2ccc(N(C)C)cc2)N2CCCC2)cc(OC)c1OC` (centres undefined): the activation was inactive: -13.9%.

In the case of `COc1ccc(/C=C(\C#N)c2nc(-c3ccc(Cl)c(Cl)c3)cs2)cc1OC`, the activation was inactive: -6.75%.

In the case of `CCc1ccccc1NC(=O)CSc1nc2c(oc3ccccc32)c(=O)n1-c1ccccc1`, the activation was inactive: 18.2%.

In the case of `O=C(COc1ccccc1F)NC1CC(=O)N(c2ccc3c(c2)OCCO3)C1` (centres undefined), the activation is inactive: 2.39%.

For `Cc1ccc(-c2nc3ccc(Br)cn3c2Nc2ccc3c(c2)OCO3)o1`, the activation is inactive: -20.6%.

On to `COc1cccc(Nc2cc(-c3ccccc3)nc(C)n2)c1`, for which the activation was inactive: -7.88%.

In the case of `Cc1ccc(C)c(N2CCN(C(=O)c3cc(S(=O)(=O)N4CCCC4)c[nH]3)CC2)c1`, the activation was inactive: -16.9%.

In the case of `CCCOc1ccc(C(=O)Nc2ccc(NC(=O)c3cccc(Cl)c3)cc2)cc1`, the activation was inactive: 8.97%.

Consider `COc1ccc(C)c2sc(N(Cc3cccnc3)C(=O)COc3ccccc3)nc12`, for which the activation is inactive: -37.2%.

Regarding `Cc1cccc(Nc2ncnc3c2cnn3C)c1C`, the activation was inactive: -5.39%.

For the compound `CCc1ccc(S(=O)(=O)Nc2cc(-c3cn4ccccc4n3)ccc2C)cc1`, the activation is inactive: 16.3%.

Take `COc1ccc(NC(=O)c2c(NCc3cccc(OC)c3)sc3c2CCC3)cc1`: the activation is inactive: -9.83%.

As for `COc1cc(OC)cc(C(=O)NCc2ccc3c(c2)CCN3C(=O)c2ccccc2)c1`, the activation is inactive: -21.6%.

Take `Cc1ccc(-n2ncc3c(N4CCN(C)CC4)ncnc32)cc1`: the activation was inactive: 44.5%.

In the case of `Cc1ccc2c(c1)N(C(=O)N1CCC(C(=O)NC3CCCCCC3)CC1)CCO2`, the activation is inactive: -10.6%.

With `CN(C)c1ccc(-c2nc(-c3ccncc3)no2)cc1[N+](=O)[O-]`, the activation was inactive: 2.24%.

On to `COc1cc(C(=O)N2CCC(c3ccncc3)CC2)cc(OC)c1OC`, for which the activation is inactive: 8.7%.

Regarding `COc1ccc(Cn2c(C(=O)O)c(CNC3CCC(C)CC3)c3ccc(C)cc32)cc1` (centres undefined), the activation is inactive: 4.98%.

Consider `COc1ccc(CC(=O)N2CC(=O)Nc3ccc(Br)cc3C2c2ccc(F)cc2)cc1OC` (centres undefined), for which the activation is inactive: -13.6%.

In the case of `COc1cc2nc(NCc3ccccc3Cl)n3nc(-c4cccnc4)nc3c2cc1OC`, the activation is inactive: -3.37%.
